Screen size: about 340,000 compounds; about 20 (0.006%) were called active. The shares of active, inactive and inconclusive entries below differ from those in the screen. Calls come from the whole dose curve; as a rule, active = well fitted inhibition curve with a large enough effect; inconclusive = small, poorly fitted or top-dose-only effect; inactive = no such curve, though single readings can be large or run the other way. Potencies beside an inconclusive call are fits to weak or partial responses and may not hold up.
molecular target: Sphingomyelin phosphodiesterase (Homo sapiens) (UniProt P17405); assay: Inhibitors of Secretory Acid Sphingomyelinase (S-ASM): qHTS; details: placental ASM, HMU-PC fluorogenic substrate (series up to 57.5 µM), 60 min; activity change, negative = inhibition: at the top concentration
Procedure, shortened: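 qHTS format. ASM enzyme prepared from human placenta hydrolyses the fluorogenic substrate HMU-PC0 (9 uM final) over 60 min at 37 °C after a 10 min compound preincubation.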
Potency is the fitted concentration of half-maximal effect; tags give direction and shape of the fitted curve.

Sequence of UniProt P17405 (P17405 whole entry, looked up): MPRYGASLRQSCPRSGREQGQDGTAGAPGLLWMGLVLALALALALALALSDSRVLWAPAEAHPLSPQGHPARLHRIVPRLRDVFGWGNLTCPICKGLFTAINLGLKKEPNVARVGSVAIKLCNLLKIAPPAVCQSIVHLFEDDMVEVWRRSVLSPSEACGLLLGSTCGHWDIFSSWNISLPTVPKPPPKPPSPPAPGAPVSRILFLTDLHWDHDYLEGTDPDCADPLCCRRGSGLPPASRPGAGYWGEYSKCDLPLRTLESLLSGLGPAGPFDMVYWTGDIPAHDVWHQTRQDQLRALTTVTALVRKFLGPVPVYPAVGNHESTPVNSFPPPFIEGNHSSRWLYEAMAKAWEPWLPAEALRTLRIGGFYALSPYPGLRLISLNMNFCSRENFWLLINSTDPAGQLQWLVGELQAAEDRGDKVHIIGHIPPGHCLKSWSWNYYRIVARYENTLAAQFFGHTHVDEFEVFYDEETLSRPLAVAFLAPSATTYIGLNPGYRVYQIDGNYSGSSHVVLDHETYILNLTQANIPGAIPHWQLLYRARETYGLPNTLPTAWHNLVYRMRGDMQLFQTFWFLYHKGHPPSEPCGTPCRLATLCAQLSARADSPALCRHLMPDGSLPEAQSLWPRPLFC

Row | Compound | activity change, negative = inhibition | Potency
1 | O=C(CNC(=O)c1ccc(Br)cc1)Nc1ccc(Br)cc1C(=O)c1ccccc1 | inactive: -12.3% | –
2 | C[N+]1(C)[C@@H]2CC[C@H]1CC(OC(=O)C(c1ccccc1)c1ccccc1)C2 (stereo not given in full) | inactive: 1.16% | –
3 | CCC(=NCc1ccc2c(c1)OCO2)c1c(O)n(C2CCCCC2)c(=O)[nH]c1=O | – | inconclusive: 282 µM [inhibitor, partial curve, poor fit]
4 | Cc1cccc(Cn2cc(C=O)c3ccccc32)c1 | inactive: -7.47% | –
5 | Cc1c(C(=O)c2cccc3ccccc23)c2cccc3c2n1[C@H](CN1CCOCC1)CO3 | inactive: -14.5% | –
6 | CCOC(=O)c1c(C)n(Cc2ccccc2)c2ccc(OCC(O)Cn3nc(C)cc3C)cc12 (stereo not given) | – | inconclusive: 112 µM [inhibitor, partial curve, poor fit]
7 | O=P(O)(O)/C=C(\Cl)c1ccccc1 | – | active: 22.4 µM
8 | COCCN(Cc1ccccc1)P(=O)(O)c1ccccc1OCC(=O)O | – | inconclusive: 63.1 µM [inhibitor, partial curve, poor fit]
9 | COC(=O)C1=C(c2ccc(OC)c(OC)c2)C[C@@H]2CC[C@H]1N2C(=O)NC1CC1 | inactive: 4.23% | –
10 | O=C(NP(=O)(N1CC1)N1CC1)c1cc(I)ccc1I | – | inconclusive: 3.98 µM [inhibitor, full curve, poor fit]
11 | CCOc1cccc(=NC2CCCCC2)c2c(C)[nH]c(C)c12 | – | inconclusive: 89.1 µM [inhibitor, partial curve, poor fit]
12 | COc1ccc(N2C(=O)/C(=C/c3ccco3)C(=O)NC2=S)cc1 | – | inconclusive: 89.1 µM [inhibitor, partial curve]
13 | CCOc1ccc(N2C(=O)/C(=C/c3ccco3)C(=O)NC2=S)cc1 | – | inconclusive: 44.7 µM [inhibitor, partial curve, poor fit]
14 | Cc1ncc2n1-c1ccc(Cl)cc1C(c1ccccc1F)=NC2 | inactive: 1.59% | –
15 | Cc1ccccc1-n1c(C)cc(/C=C2/C(=O)NC(=O)N(Cc3ccco3)C2=O)c1C | – | inconclusive: 355 µM [inhibitor, partial curve, poor fit]
16 | CC(C)[C@@]1(NC(=O)[C@@H]2C[C@@H]3c4cccc5[nH]cc(c45)C[C@H]3N(C)C2)O[C@@]2(O)[C@@H]3CCCN3C(=O)[C@H](Cc3ccccc3)N2C1=O | inactive: 35% | –
17 | O=C1NC(=S)SC1=Cc1ccc(N(CCCl)CCCl)cc1 | – | inconclusive: 112 µM [inhibitor, partial curve, poor fit]
18 | Cc1ccc2c(c1)C1CN(C)CCC1N2C(=O)c1cccs1 (stereo not given) | inactive: -1.68% | –
19 | COc1cc(/C=C2/SC(=S)N(Cc3ccccc3)C2=O)ccc1OCC(=O)O | – | inconclusive: 39.8 µM [inhibitor, partial curve]
20 | CCCCCn1c(=O)c(C(=O)Nc2cccc(C)c2)c(O)c2ccccc21 | inactive: 5.2% | –
21 | C=C(C)[C@@]12OC3(c4ccccc4)O[C@@H]1C1[C@@H]4O[C@]4(CO)[C@@H](O)[C@]4(O)C(=O)C(C)=C[C@H]4[C@@]1(O3)[C@H](C)[C@H]2OC(=O)/C=C/C=C/c1ccccc1 (stereo not given in full) | – | inconclusive: 316 µM [inhibitor, partial curve, poor fit]
22 | CN1C(=O)C(=Cc2ccccc2OCc2ccccc2Cl)C(=O)N(C)C1=O | inactive: -1.23% | –
23 | COC(=O)C1=C(c2ccc(OC(F)(F)F)cc2)C[C@@H]2CC[C@H]1N2C(=O)N1CCC(C)CC1 | – | inconclusive: 251 µM [inhibitor, partial curve, poor fit]

Row | Compound | activity change, negative = inhibition | Potency
24 | COC(=O)C1=C(C)N(Cc2ccco2)C(=O)/C1=C\c1ccc(N(C)C)cc1 | – | inconclusive: 316 µM [inhibitor, partial curve, poor fit]
25 | O=[N+]([O-])c1cccc2c([As](=O)(O)O)cccc12 | – | inconclusive: 31.6 µM [inhibitor, partial curve, poor fit]
26 | CCN(CC)c1ccc(/C=N/c2sc3c(c2C#N)C2CCN3CC2)c(O)c1 | – | inconclusive: 200 µM [inhibitor, partial curve, poor fit]
27 | Nc1ncnc2c1ncn2[C@@H]1O[C@H](COP(=O)(O)CP(=O)(O)O)[C@@H](O)[C@H]1O | – | inconclusive: 63.1 µM [inhibitor, partial curve, poor fit]
28 | C[C@@H]1CN([C@H](C)CO)C(=O)c2cc(NC(=O)Nc3ccc(C(F)(F)F)cc3)ccc2O[C@H]1CN(C)S(=O)(=O)c1cccs1 | – | inconclusive: 355 µM [inhibitor, partial curve, poor fit]
29 | O=P(Oc1ccc(Cl)cc1)(N1CC1)N1CC1 | – | inconclusive: 562 µM [inhibitor, partial curve, poor fit]
30 | Cc1ccc(OP2(=O)Nc3cc(C)c(C)cc3S2)cc1 (stereo not given) | – | inconclusive: 126 µM [inhibitor, single point]
31 | O=C1/C(=C\c2ccc([N+](=O)[O-])cc2)N2CCC1CC2 | inactive: -5.03% | –
32 | Ic1ccccc1CN[C@@H]1C2CCN(CC2)[C@@H]1C(c1ccccc1)c1ccccc1 | – | inconclusive: 100 µM [inhibitor, partial curve, poor fit]
33 | Cc1ccc(Cn2nnnc2CN2CCC(n3nnc4cc(C(F)(F)F)ccc43)CC2)cc1 | – | inconclusive: 112 µM [inhibitor, partial curve, poor fit]
34 | Nc1ccc(N=Nc2ccccc2)cc1 | – | inconclusive: 79.4 µM [inhibitor, single point]
35 | CN1CCc2nc3sc(C(=O)NC4CC4)c(N)c3cc2C1 | inactive: 17.7% | –
36 | C[C@]12CCC3C(CC[C@H]4C[C@H](O)CC[C@]34C)C1[C@@H](O)[C@@H](O)[C@@H]2O (stereo not given in full) | inactive: -0.38% | –
37 | O=P(O)(O)Oc1ccccc1P(=O)(c1ccccc1)c1ccccc1 | – | inconclusive: 56.2 µM [inhibitor, partial curve, poor fit]
38 | CSc1nnc(OC(=O)N(C)C)n1-c1ccc(Cl)cc1 | inactive: 1.37% | –
39 | O=c1[nH]c(=S)[nH]c(O)c1N=Nc1cc(S(=O)(=O)Nc2ccc(Cl)cc2)ccc1Cl | – | inconclusive: 158 µM [inhibitor, partial curve, poor fit]
40 | CC1=CC(=O)C2=C(C)CC(O)C3C(C)C(=O)OC3C12 (stereo not given) | inactive: 3.45% | –
41 | O=C(O)C1CC2(Cl)C(Cl)=C(Cl)C1(Cl)C2(Cl)Cl (stereo not given) | inactive: 5.58% | –
42 | CCOc1cc2c(cc1OCC)-n1cccc1C(c1cc(C)c(OC)cc1C)NC2 (stereo not given) | inactive: -9.95% | –
43 | CC(C)CCn1c(N2CCN(c3cccc(Cl)c3)CC2)nc2c1c(=O)[nH]c(=O)n2C | – | inconclusive: 355 µM [inhibitor, partial curve, poor fit]
44 | O=C1NC(=O)C(=Cc2cc(Cl)ccc2OCc2ccc(C(=O)O)cc2)C(=O)N1 | inactive: 11% | –
45 | COC(=O)C1=C(c2ccc(-c3ccccc3)c(F)c2)C[C@@H]2CC[C@H]1N2C(=O)NCc1ccc(F)cc1 | – | inconclusive: 447 µM [inhibitor, partial curve, poor fit]
